{"source": "paper PMC9911399", "about": "“Two distinct binding modes provide the RNA-binding protein RbFox with extraordinary sequence specificity”", "binders": {"B1": {"name": "CGCACCA (DNA:RNA)", "RNA": "GGGAGACCGGAAUUCAGAUUGUCCCGCACCAUUAAAUCCCGUCGUAGCCACCA", "DNA 1": "CAATCTGAATTCCGGTCTCCC", "DNA 2": "TGGTGGCTACGACGGGATT"}, "B2": {"name": "UCUGGGC (DNA:RNA)", "RNA": "GGGAGACCGGAAUUCAGAUUGUCCUCUGGGCUUAAAUCCCGUCGUAGCCACCA", "DNA 1": "CAATCTGAATTCCGGTCTCCC", "DNA 2": "TGGTGGCTACGACGGGATT"}, "B3": {"name": "CACUCGC (DNA:RNA)", "RNA": "B1 RNA with G26A, A28U, C30G, A31C", "DNA 1": "CAATCTGAATTCCGGTCTCCC", "DNA 2": "TGGTGGCTACGACGGGATT"}, "B4": {"name": "GCUGCCU (DNA:RNA)", "RNA": "B2 RNA with U25G, G29C, G30C, C31U", "DNA 1": "CAATCTGAATTCCGGTCTCCC", "DNA 2": "TGGTGGCTACGACGGGATT"}, "B5": {"name": "UUAGUCU (DNA:RNA)", "RNA": "B2 RNA with C26U, U27A, G29U, G30C, C31U", "DNA 1": "CAATCTGAATTCCGGTCTCCC", "DNA 2": "TGGTGGCTACGACGGGATT"}, "B6": {"name": "AGCGUGG (DNA:RNA)", "RNA": "B1 RNA with C25A, A28G, C29U, C30G, A31G", "DNA 1": "CAATCTGAATTCCGGTCTCCC", "DNA 2": "TGGTGGCTACGACGGGATT"}, "B7": {"name": "GCAAAUU (DNA:RNA)", "RNA": "B1 RNA with C25G, G26C, C27A, C29A, C30U, A31U", "DNA 1": "CAATCTGAATTCCGGTCTCCC", "DNA 2": "TGGTGGCTACGACGGGATT"}, "B8": {"name": "AUAUAAU (DNA:RNA)", "RNA": "GGGAGACCGGAAUUCAGAUUGUCCAUAUAAUUUAAAUCCCGUCGUAGCCACCA", "DNA 1": "CAATCTGAATTCCGGTCTCCC", "DNA 2": "TGGTGGCTACGACGGGATT"}, "B9": {"name": "AUUCUCC (DNA:RNA)", "RNA": "B8 RNA with A27U, U28C, A29U, A30C, U31C", "DNA 1": "CAATCTGAATTCCGGTCTCCC", "DNA 2": "TGGTGGCTACGACGGGATT"}, "B10": {"name": "AGGACGC (DNA:RNA)", "RNA": "B1 RNA with C25A, C27G, C30G, A31C", "DNA 1": "CAATCTGAATTCCGGTCTCCC", "DNA 2": "TGGTGGCTACGACGGGATT"}, "B11": {"name": "AUGAUUG (DNA:RNA)", "RNA": "B8 RNA with A27G, U28A, A29U, A30U, U31G", "DNA 1": "CAATCTGAATTCCGGTCTCCC", "DNA 2": "TGGTGGCTACGACGGGATT"}, "B12": {"name": "CCGAAGU (DNA:RNA)", "RNA": "B8 RNA with A25C, U26C, A27G, U28A, A30G", "DNA 1": "CAATCTGAATTCCGGTCTCCC", "DNA 2": "TGGTGGCTACGACGGGATT"}, "B13": {"name": "CUAAAUG (DNA:RNA)", "RNA": "B8 RNA with A25C, U28A, A30U, U31G", "DNA 1": "CAATCTGAATTCCGGTCTCCC", "DNA 2": "TGGTGGCTACGACGGGATT"}, "B14": {"name": "UUAGGGU (DNA:RNA)", "RNA": "B2 RNA with C26U, U27A, C31U", "DNA 1": "CAATCTGAATTCCGGTCTCCC", "DNA 2": "TGGTGGCTACGACGGGATT"}, "B15": {"name": "CGAUUCG (DNA:RNA)", "RNA": "B1 RNA with C27A, A28U, C29U, A31G", "DNA 1": "CAATCTGAATTCCGGTCTCCC", "DNA 2": "TGGTGGCTACGACGGGATT"}, "B16": {"name": "CCGGUGC (DNA:RNA)", "RNA": "B2 RNA with U25C, U27G, G29U", "DNA 1": "CAATCTGAATTCCGGTCTCCC", "DNA 2": "TGGTGGCTACGACGGGATT"}, "B17": {"name": "ACGAGAU (DNA:RNA)", "RNA": "B8 RNA with U26C, A27G, U28A, A29G", "DNA 1": "CAATCTGAATTCCGGTCTCCC", "DNA 2": "TGGTGGCTACGACGGGATT"}, "B18": {"name": "ACCACUC (DNA:RNA)", "RNA": "B1 RNA with C25A, G26C, C30U, A31C", "DNA 1": "CAATCTGAATTCCGGTCTCCC", "DNA 2": "TGGTGGCTACGACGGGATT"}, "B19": {"name": "GACUGGG (DNA:RNA)", "RNA": "B2 RNA with U25G, C26A, U27C, G28U, C31G", "DNA 1": "CAATCTGAATTCCGGTCTCCC", "DNA 2": "TGGTGGCTACGACGGGATT"}, "B20": {"name": "ACAGACG (DNA:RNA)", "RNA": "B8 RNA with U26C, U28G, A30C, U31G", "DNA 1": "CAATCTGAATTCCGGTCTCCC", "DNA 2": "TGGTGGCTACGACGGGATT"}, "B21": {"name": "UCGCUUC (DNA:RNA)", "RNA": "B2 RNA with U27G, G28C, G29U, G30U", "DNA 1": "CAATCTGAATTCCGGTCTCCC", "DNA 2": "TGGTGGCTACGACGGGATT"}, "B22": {"name": "ACCGUGG (DNA:RNA)", "RNA": "B2 RNA with U25A, U27C, G29U, C31G", "DNA 1": "CAATCTGAATTCCGGTCTCCC", "DNA 2": "TGGTGGCTACGACGGGATT"}, "B23": {"name": "UGAUCAC (DNA:RNA)", "RNA": "B8 RNA with A25U, U26G, A29C, U31C", "DNA 1": "CAATCTGAATTCCGGTCTCCC", "DNA 2": "TGGTGGCTACGACGGGATT"}, "B24": {"name": "AAUAGCA (DNA:RNA)", "RNA": "B1 RNA with C25A, G26A, C27U, C29G", "DNA 1": "CAATCTGAATTCCGGTCTCCC", "DNA 2": "TGGTGGCTACGACGGGATT"}, "B25": {"name": "UUGUUAC (DNA:RNA)", "RNA": "B8 RNA with A25U, A27G, A29U, U31C", "DNA 1": "CAATCTGAATTCCGGTCTCCC", "DNA 2": "TGGTGGCTACGACGGGATT"}, "B26": {"name": "UUCCCAU (DNA:RNA)", "RNA": "B8 RNA with A25U, A27C, U28C, A29C", "DNA 1": "CAATCTGAATTCCGGTCTCCC", "DNA 2": "TGGTGGCTACGACGGGATT"}, "B27": {"name": "AAUGAGG (DNA:RNA)", "RNA": "B2 RNA with U25A, C26A, G29A, C31G", "DNA 1": "CAATCTGAATTCCGGTCTCCC", "DNA 2": "TGGTGGCTACGACGGGATT"}, "B28": {"name": "GGGCUUG (DNA:RNA)", "RNA": "B1 RNA with C25G, C27G, A28C, C29U, C30U, A31G", "DNA 1": "CAATCTGAATTCCGGTCTCCC", "DNA 2": "TGGTGGCTACGACGGGATT"}, "B29": {"name": "AGAAUUA (DNA:RNA)", "RNA": "B1 RNA with C25A, C27A, C29U, C30U", "DNA 1": "CAATCTGAATTCCGGTCTCCC", "DNA 2": "TGGTGGCTACGACGGGATT"}, "B30": {"name": "AGCCACC (DNA:RNA)", "RNA": "B1 RNA with C25A, A28C, C29A, A31C", "DNA 1": "CAATCTGAATTCCGGTCTCCC", "DNA 2": "TGGTGGCTACGACGGGATT"}, "B31": {"name": "CCGGCGA (DNA:RNA)", "RNA": "B1 RNA with G26C, C27G, A28G, C30G", "DNA 1": "CAATCTGAATTCCGGTCTCCC", "DNA 2": "TGGTGGCTACGACGGGATT"}}, "note": "Where a chain is given by its changes, count along the chain named. This is one part of the list.", "data": [{"molecular_target": "T1, RBFOX1 RRM RbFoxmut (Fox-RRM*) (Homo sapiens, UniProt Q9NWB1 109-208, R118D;E147R;N151S;E152T)", "T1 sequence": "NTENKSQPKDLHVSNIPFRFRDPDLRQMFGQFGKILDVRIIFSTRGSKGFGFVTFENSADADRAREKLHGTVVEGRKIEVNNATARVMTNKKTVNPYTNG", "test": "EMSA; HiTS-Eq, 1 nM pool, 10 min; buffer printed only for the single-RNA assays: 10 mM Tris pH 7.5, 150 mM NaCl, 3.4 mM EDTA, 0.001% NP-40, 30 C", "conditions": "tags: His6 N-terminal (pET28a); label: 5' 32P", "how_it_was_run": "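A pool of RNA with 7 randomized nucleotides, 5′-radiolabelled and with DNA-annealed flanks, was equilibrated at 1 nM for 10 min in 50 µL with purified RbFox RRM, wild type or mutant, across increasing protein concentrations. Free RNA was separated by 8% native PAGE, excised, reverse-transcribed, barcoded by PCR and sequenced. Relative association constants were obtained from read-count changes of each RNA species versus the control reaction and normalised to the cognate motif.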", "values": [{"binder": "B1", "binding signal": "0.103 KA relative to UGCAUGU"}, {"binder": "B2", "binding signal": "0.0756 KA relative to UGCAUGU"}, {"binder": "B3", "binding signal": "0.0994 KA relative to UGCAUGU"}, {"binder": "B4", "binding signal": "0.0709 KA relative to UGCAUGU"}, {"binder": "B5", "binding signal": "0.0656 KA relative to UGCAUGU"}, {"binder": "B6", "binding signal": "0.125 KA relative to UGCAUGU"}, {"binder": "B7", "binding signal": "0.0732 KA relative to UGCAUGU"}, {"binder": "B8", "binding signal": "0.0852 KA relative to UGCAUGU"}, {"binder": "B9", "binding signal": "0.0686 KA relative to UGCAUGU"}, {"binder": "B10", "binding signal": "0.0861 KA relative to UGCAUGU"}, {"binder": "B11", "binding signal": "0.428 KA relative to UGCAUGU"}, {"binder": "B12", "binding signal": "0.106 KA relative to UGCAUGU"}, {"binder": "B13", "binding signal": "0.0852 KA relative to UGCAUGU"}, {"binder": "B14", "binding signal": "0.0623 KA relative to UGCAUGU"}, {"binder": "B15", "binding signal": "0.163 KA relative to UGCAUGU"}, {"binder": "B16", "binding signal": "0.102 KA relative to UGCAUGU"}, {"binder": "B17", "binding signal": "0.101 KA relative to UGCAUGU"}, {"binder": "B18", "binding signal": "0.0459 KA relative to UGCAUGU"}, {"binder": "B19", "binding signal": "0.133 KA relative to UGCAUGU"}, {"binder": "B20", "binding signal": "0.0878 KA relative to UGCAUGU"}, {"binder": "B21", "binding signal": "0.0952 KA relative to UGCAUGU"}, {"binder": "B22", "binding signal": "0.0877 KA relative to UGCAUGU"}, {"binder": "B23", "binding signal": "0.0691 KA relative to UGCAUGU"}, {"binder": "B24", "binding signal": "0.0898 KA relative to UGCAUGU"}, {"binder": "B25", "binding signal": "0.126 KA relative to UGCAUGU"}, {"binder": "B26", "binding signal": "0.0783 KA relative to UGCAUGU"}, {"binder": "B27", "binding signal": "0.0922 KA relative to UGCAUGU"}, {"binder": "B28", "binding signal": "0.371 KA relative to UGCAUGU"}, {"binder": "B29", "binding signal": "0.131 KA relative to UGCAUGU"}, {"binder": "B30", "binding signal": "0.0668 KA relative to UGCAUGU"}, {"binder": "B31", "binding signal": "0.0907 KA relative to UGCAUGU"}]}]}
